Experimental data taken from the supplement of paper PMC11417369.
± gives the standard deviation of the averaged measurements. This is one part of the list.

tested on: PfAP2-EXP AP2 domain (GST-tagged); assay: gcPBM binding intensity (ln(normalized median fluorescence intensity)); higher = stronger DNA binding
Summary of the method: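 GST-tagged P. falciparum DNA-binding domains produced in E. coli were incubated for 1 h on an Agilent 4 × 180k array of primer-extended double-stranded 36-bp intergenic genomic probes with negative controls. Binding intensity is the highest Masliner-normalised natural-log median intensity across replicate spots of either probe orientation, with bound protein detected by Alexa488 anti-GST antibody at 488 nm.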

Row | Sequence | gcPBM binding intensity (ln)
1 | TTTATTCAAATATAATGTACTTTCTACAAATTCAAT [XGTACX_site8119] | 8.23 ± 0.34
2 | CATATATAAATATATACACACATATATATATATATA [CACACA_site1365] | 10 ± 0.35
3 | CAGATAAGATTTTGTGGTACTATTTATTAAATTAGA [XGTACX_site2644] | 8.2 ± 0.38
4 | ATATTTTCCCTTTATAGGAGCACAAAAATTAAATGT [CACACA_negctrl_site1114] | 8.51 ± 0.35
5 | AAATATTACTCCTCAAGTACACATAAAAAAAAAATA [XGTACX_site2085] | 8.55 ± 0.52
6 | TTTTATTTTCGATGATGTACATTAAATTATACAGTA [XGTACX_site6053] | 8.47 ± 0.32
7 | AATATACAAAATAAATAAAATATATATATATATATA [CACACA_negctrl_site216] | 10.2 ± 0.28
8 | TATTTTTTTTGATATTGTACTTTTTTATTATTTTTT [XGTACX_site566] | 8.6 ± 0.41
9 | TAAAAATTTAAGAAAACATGCATCTAACATATATAT [TGCATGCA_site342] | 8.77 ± 0.54
10 | AAGTAAAATAAGTATACACACATAAATATGTAAATA [CACACA_site6467] | 8.6 ± 0.33
11 | TTACATGCTAAAATTTGTACATATATGATAAATATT [XGTACX_site2648] | 8.44 ± 0.38
12 | ATACATAAATTTATACGTACATATATAGATACATAA [XGTACX_site675] | 8.64 ± 0.35
13 | TTGTTTTCACCAAATACACACAAGCATACACCCCAT [CACACA_site2717] | 9.27 ± 0.57
14 | TATTTATTGTGATACTTATATTATTTCATGATTAAT [CACACA_negctrl_site738] | 8.38 ± 0.33
15 | ACTTTATTATATATTTGTACATATATTTTTAATTTC [XGTACX_site4144] | 8.88 ± 0.32
16 | TCTACATCTGTATATAAACACACAACAAAAATGCTT [CACACA_site9271] | 8.4 ± 0.47
17 | GTATATATGTATGTATGTACTTATAAAGTTGCATAT [XGTACX_site5616] | 8.49 ± 0.27
18 | AATGTGTAGACACGCACACACAAAAAAATATTTATA [CACACA_site7384] | 8.46 ± 0.6
19 | TATATATTTCAATAATGTACATATAATATATATATT [XGTACX_site4124] | 8.51 ± 0.31
20 | TTCTTACACAAAAAAATGAAATCAATCAAAAAAAAA [CACACA_negctrl_site869] | 8.26 ± 0.55
21 | AAATTATATATAAAATGTACATATGTAGGTAATTTT [XGTACX_site5047] | 9.02 ± 0.51
22 | AAGTAATCATCATAAAGTACTAAATTATATTGTCAA [XGTACX_site5841] | 8.31 ± 0.43

Row | Sequence | gcPBM binding intensity (ln)
23 | GAAAATATATTTAAGATGCACTTTAAAAATGTACTT | 8.52 ± 0.24
24 | ACATTCTGATGGTGATTATTAATTATTACAAAAATT [CACACA_negctrl_site283] | 8.16 ± 0.47
25 | CAATTTATTATATATGTGCACATATAATTTTACAAA | 8.76 ± 0.18
26 | TAATTATTTTTATTGTTGCACTAGTAAAATTTTAAG [GTGCAC_site9946] | 8.62 ± 0.28
27 | AATACAAATATATATGCACACACATATACATACATA [CACACA_site8677] | 8.54 ± 0.17
28 | TACATTTTAATATAAGCATGCCTTTAGTTTTTTTCT [TGCATGCA_site829] | 9.04 ± 0.35
29 | TTTTTTTTTTCTTTTTTTTATTATATTAACGGAATT [GTGCAC_negctrl_site104] | 8.21 ± 0.42
30 | AATAAACAAATAAATAAACACACAATATATGTATAT [CACACA_site9268] | 8.44 ± 0.42
31 | AAAAAGAAATACAAATAATATATATATATATATATT [TGCATGCA_negctrl_site458] | 8.45 ± 0.26
32 | CATAAAAATTGAAGCACACACACAAAAGAAATACAA [CACACA_site1112] | 8.87 ± 0.38
33 | ATCATTTCTATATAAGCACACACGTGGAATTTTTTT [CACACA_site2786] | 8.95 ± 0.4
34 | TTTCTTTAACAAGTTAAACACACATACATATATACA [CACACA_site8810] | 8.58 ± 0.49
35 | AAAATAAATATATTATCCACGTTGTATATATATATA [XGTACX_negctrl_site136] | 9.93 ± 0.34
36 | TTACTTATATGCATAGTGCAAATTTGGTAAATATCT | 8.93 ± 0.33
37 | CACATACAGATATATACACACAAATATAAATACACA [CACACA_site6512] | 8.64 ± 0.49
38 | AATAAATATAAAAATGCACACACACTAATAAAAAAA [CACACA_site8201] | 8.92 ± 0.4
39 | AACTTGTATTTATACACACACACACTAGCTTTTTTT [CACACA_site5132] | 8.71 ± 0.59
40 | AGAATTAAAAACAGTTGTACAAAAAGTTGTATAAAT [XGTACX_site411] | 8.66 ± 0.37
41 | AGTAATAAATTTTATACATGCATAAAAAAAAAAAAA [TGCATGCA_site661] | 8.85 ± 0.35
42 | TATAGCTTTCATTATACACACATCAAAAATTTAAAT [CACACA_site227] | 8.51 ± 0.44
43 | TTAAAAATCATTTAAGAACACACAAATATTTCCATT [CACACA_site8418] | 8.58 ± 0.69
44 | TATATTTATTTTTAATGTACATATTTAAGAAAACTA [XGTACX_site4920] | 8.54 ± 0.2

Row | Sequence | gcPBM binding intensity (ln)
45 | GACTCATTAAGGATTATTCCTAATGATCAAAAGAAC [CACACA_negctrl_site515] | 8.54 ± 0.4
46 | TATATAATTCAAAAATGTACATGAAATATAAATATT [XGTACX_site7984] | 8.62 ± 0.28
47 | TGATTCTTTTCAAAGTGTACAGTAATTTTTATGTAA [XGTACX_site8452] | 8.38 ± 0.11
48 | AAGTTTTCTTAAAGATGTACTTTTTAAAAATAAAAT [XGTACX_site3063] | 8.19 ± 0.3
49 | AAATATATTGCATATATACACACGTATATATATTAA [CACACA_site2759] | 8.31 ± 0.34
50 | ATATCAAGCTATGAGAAAAAAAAAAAGAAAAAAAAA [CACACA_negctrl_site1370] | 8.12 ± 0.36
51 | ATATTATAAATTATAGGTACACACAAAAAAAAAAAG [XGTACX_site2637] | 8.89 ± 0.44
52 | TTAAATAAAAAAATAACACACATATAAATCTATATG [CACACA_site7482] | 8.39 ± 0.33
53 | GCCATTAATTTATACACACACATTATAACTTTTTAT [CACACA_site6492] | 8.93 ± 0.39
54 | TATCAGCAATGGAAAACATGCAAAAAATTAATATAT [TGCATGCA_site623] | 8.89 ± 0.42
55 | TCTTCAAAGACACAATCACACACATACATAAATATA [CACACA_site8128] | 8.58 ± 0.54
56 | ATCAAAAATGTTATATATATATATATATATATATAT [TGCATGCA_negctrl_site71] | 10.2 ± 0.45
57 | AATACGTTTCAAAAATGTACACATATATCATAAATA [XGTACX_site8962] | 8.505 ± 0.078
58 | ATTATATTAATTTATAGTACAATATTTATATATATG [XGTACX_site4668] | 8.35 ± 0.36
59 | TATATATTACTTTTTTGTACGAATTTTACAACTACG [XGTACX_site3473] | 8.88 ± 0.39
60 | TATTAAAATATTCTCACACACCAAAATATGTATGTA [CACACA_site6565] | 8.13 ± 0.47
61 | AAAAAAAAAAAAAAAAAAAGAAAAGAAAATAGGGTT [GTGCAC_negctrl_site421] | 8.56 ± 0.52
62 | AAAAGACATTTTTTTTTATAAATACACACGTACGTG [TGCATGCA_negctrl_site281] | 8.54 ± 0.52
63 | AGGAGGAACAAACAAAACAATAAAAATTATAATAAA [GTGCAC_negctrl_site206] | 8.79 ± 0.44
64 | TTCCAAGAAATAATAGTGCATTATTCATTTTAATAA | 8.62 ± 0.27
65 | TTCAAAGACACAATCACACACATACATAAATATACA [CACACA_site687] | 8.66 ± 0.52
66 | AATATACATAACAAGGTGCAAAAAATATTGTTCATA [GTGCAC_site9499] | 9.19 ± 0.26

Row | Sequence | gcPBM binding intensity (ln)
67 | TTATTATTATGATTATTATGATGATTATACAACTGT [TGCATGCA_negctrl_site241] | 8.26 ± 0.42
68 | TATTAATTATAAGATGCATGTGCAAAAATATGTTCC [TGCATGCA_site51] | 9.01 ± 0.36
69 | ATAATATTTTATTATACATGCAAATTATTATATATA [TGCATGCA_site40] | 8.43 ± 0.43
70 | TTTCTTTGTATTTATAGTACATATTTTAATAACTGC [XGTACX_site6673] | 8.53 ± 0.42
71 | TAAAAATTAAAAAGGGTGCAAAAAAAAAAAAAAAAA [GTGCAC_site9733] | 8.45 ± 0.18
72 | ACAAAATTTACAAAATGTACAAAGTATGTGTTTTAT [XGTACX_site6462] | 8.39 ± 0.48
73 | TTTCCGGTAATATGGAGATATATGTGGGTTTTTTTT [GTGCAC_negctrl_site374] | 8.41 ± 0.58
74 | AGAAAAAAGAGGGATACACACAAACATATATTTATA [CACACA_site7122] | 8.81 ± 0.29
75 | ATATTTTTTTTTTTCACACACATTTATATTGTATTA [CACACA_site5695] | 8.81 ± 0.54
76 | CACCCTTTGTTTTAGAGTACATATGTATATACGTAA [XGTACX_site7964] | 8.79 ± 0.43
77 | GATTAAAATCAAAGGTGTACGCACAAATAAGTCCCA [XGTACX_site4360] | 8.68 ± 0.45
78 | TATATATATTTATGTACACACATATATACCTTTCAT [CACACA_site5479] | 8.74 ± 0.23
79 | TATATTTACTCTAAGTGTACATATTATTTTATAATA [XGTACX_site2046] | 8.29 ± 0.35
80 | TTTTTTTTTTTTATTTGTACACATTTTCATATTTTT [XGTACX_site4406] | 8.71 ± 0.52
81 | TATATATATATGTGCACACATAAAGATATTATTTTT [CACACA_site3733] | 9.95 ± 0.24
82 | AATATATATATATATACATGCATATATTCCTTCCTT [TGCATGCA_site890] | 8.74 ± 0.32
83 | ATTCTTTTAAACAGTACACACACACCGATATATATA [CACACA_site8213] | 8.96 ± 0.46
84 | TTTGTGCCTATAAATTAACACACAGAAATATATAGA [CACACA_site8175] | 8.4 ± 0.36
85 | AAAAACTTATATGATACACACGATAAACAAAATAAA [CACACA_site1039] | 8.91 ± 0.36
86 | AATATATCATAATGATGTACAAGTAAAACCGTTACA [XGTACX_site4280] | 8.74 ± 0.52
87 | TAACACATAAATAAATATATACATATATATAAAATA [CACACA_negctrl_site375] | 8.35 ± 0.38
88 | ATAAAATAAAATTGGTGTACTTTTGATAAAATAAAA [XGTACX_site4264] | 8.24 ± 0.28
